Source: the antibiotic and cytotoxicity screens of Wong et al. (2023)
The other results are listed elsewhere or left out.

Legend:
HSkMC = human skeletal muscle cells; assay: cytotoxicity call (relative viability < 0.9); settings: 10 µM
HepG2 = assay: cytotoxicity call (relative viability < 0.9); settings: 10 µM
S. aureus RN4220 = assay: growth inhibition call (relative growth <= 0.2); settings: 50 µM

Compound	cytotoxicity call (HSkMC)	cytotoxicity call (HepG2)	growth inhibition call (S. aureus RN4220)
Cc1noc(C)c1NC(=O)N(C)C[C@@H]1Oc2ccc(NC(=O)NC(C)C)cc2C(=O)N([C@H](C)CO)C[C@H]1C	inactive	inactive	inactive
C[C@@H]1CN([C@H](C)CO)C(=O)c2cc(NS(=O)(=O)c3ccccc3)ccc2O[C@@H](C)CCCCO[C@@H]1CN(C)Cc1ccc(C(=O)O)cc1	inactive	inactive	inactive
C=CCN1C(=O)[C@@]2(O[C@@H](CCO)[C@H]([Si](C)(C)c3ccc(OC)cc3)[C@H]2C)c2cc(N(C=O)c3ccccc3)ccc21	active	active	inactive
C[C@@H]1CN([C@H](C)CO)C(=O)Cc2cc(NS(=O)(=O)c3ccc(F)cc3)ccc2O[C@@H]1CN(C)Cc1ccc(-c2ccccc2)cc1	active	active	inactive
COC(=O)c1c2oc(c1C(=O)OC)C(=O)N[C@H](Cc1ccccc1)Cn1cc(nn1)[C@H](Cc1ccccc1)NC(=O)N[C@H](CO)CC2	inactive	inactive	inactive
CCCC#Cc1cnc2c(c1)C(=O)N([C@@H](C)CO)C[C@@H](C)[C@@H](CN(C)S(=O)(=O)c1cn(C)cn1)O2	inactive	inactive	inactive
C[C@@H]1CN([C@H](C)CO)C(=O)c2cc(NS(C)(=O)=O)ccc2O[C@@H](C)CCCCO[C@H]1CN(C)Cc1ccc(C(F)(F)F)cc1	inactive	inactive	inactive
C[C@H](CO)N1C[C@H](C)[C@@H](CN(C)C(=O)Nc2cccc(C(F)(F)F)c2)OCc2cn(nn2)CCCC1=O	inactive	inactive	inactive
C[C@H](CO)N1C[C@H](C)[C@@H](CN(C)S(=O)(=O)c2cn(C)cn2)Oc2ncc(Br)cc2C1=O	inactive	inactive	inactive
COc1ccc(CN(C)C[C@@H]2OCCCC[C@H](C)Oc3ccc(NS(=O)(=O)c4c(C)noc4C)cc3C(=O)N([C@H](C)CO)C[C@@H]2C)cc1	inactive	inactive	inactive
COc1ccc(S(=O)(=O)N2C[C@@H](O)COC[C@H]3O[C@H](CC(=O)NCCN4CCCCC4)CC[C@@H]32)cc1	inactive	inactive	inactive
CC1(C)NCCNC1=O	inactive	inactive	inactive
C[C@H](CO)N1C[C@H](C)[C@@H](CN(C)Cc2ccc3c(c2)OCO3)OCCCC[C@H](C)Oc2ccc(NC(=O)Nc3ccc(C(F)(F)F)cc3)cc2C1=O	active	active	inactive
COc1ccc(S(=O)(=O)N(C)C[C@@H]2OCCCC[C@H](C)Oc3ccc(NC(=O)NC4CCCCC4)cc3C(=O)N([C@H](C)CO)C[C@@H]2C)cc1	inactive	inactive	inactive
O=C(O[C@@H]1O[C@H]2COC(=O)c3cc(O)c(O)c(O)c3-c3c(cc(O)c(O)c3O)C(=O)O[C@@H]([C@H]1O)[C@@H]2OC(=O)c1cc(O)c(O)c(O)c1-c1c(C(=O)O)cc(O)c(O)c1O)c1cc(O)c(O)c(O)c1	inactive	active	inactive
Cc1noc(C)c1NC(=O)N(C)C[C@H]1Oc2ccc(NS(=O)(=O)c3ccccc3)cc2CC(=O)N([C@H](C)CO)C[C@H]1C	inactive	inactive	inactive
C[C@@H]1CCCCO[C@@H](CN(C)S(=O)(=O)c2cccs2)[C@H](C)CN([C@H](C)CO)C(=O)c2cc(NC(=O)Cc3ccccc3)ccc2O1	inactive	active	inactive
C[C@@H]1CN([C@H](C)CO)C(=O)Cc2cc(NC(=O)NC3CCCCC3)ccc2O[C@@H]1CN(C)Cc1ccc(C(=O)Nc2ccccc2N)cc1	inactive	active	inactive
C[C@@H]1CN([C@@H](C)CO)C(=O)c2cc(NS(=O)(=O)c3cccs3)ccc2O[C@@H]1CN(C)S(=O)(=O)c1cccs1	inactive	inactive	inactive
CC(C)(C(=O)c1cccnc1)c1cccnc1	inactive	inactive	inactive
C[C@@H]1CN([C@H](C)CO)C(=O)CCCn2cc(nn2)CO[C@H]1CN(C)C(=O)Nc1ccnc(N2CCOCC2)c1	inactive	inactive	inactive
COc1ccc2c(c1OCc1ccccc1)C[C@@H](C(=O)O)N(C(=O)C(c1ccccc1)c1ccccc1)C2	inactive	inactive	inactive
C[C@@H]1CCCCO[C@H](CN(C)CC2CCCCC2)[C@H](C)CN([C@@H](C)CO)C(=O)c2cc(NC(=O)Nc3cccc4ccccc34)ccc2O1	active	active	inactive
CN1CCN(C(=O)C[C@H]2CC[C@H]3[C@@H](COC[C@H](O)CN3CC3CCCC3)O2)CC1	inactive	inactive	inactive

Compound	cytotoxicity call (HSkMC)	cytotoxicity call (HepG2)	growth inhibition call (S. aureus RN4220)
CC(C)(Sc1ccncc1-c1ccc(C#N)c2ccccc12)C(=O)O	inactive	inactive	inactive
Cc1noc(C)c1S(=O)(=O)Nc1ccc2c(c1)C(=O)N([C@@H](C)CO)C[C@H](C)[C@H](CN(C)Cc1ccc3c(c1)OCO3)O2	inactive	inactive	inactive
O=C(NCc1ccncc1)C(=O)NC[C@H]1OCCN1C(=O)c1ccc(Cl)cc1	inactive	inactive	inactive
CO[C@@H]1CN(C)C(=O)c2cc(NC(=O)Nc3ccccc3)ccc2OC[C@H](C)N(C(=O)CN(C)C)C[C@H]1C	inactive	inactive	inactive
Cc1ccc(S(=O)(=O)N2C[C@@H](O)COC[C@H]3O[C@H](CC(=O)NCc4ccc(F)c(F)c4)CC[C@@H]32)cc1	inactive	inactive	inactive
C[C@H](CO)N1C[C@H](C)[C@@H](CN(C)S(=O)(=O)c2ccccc2)Oc2ccc(NS(=O)(=O)c3ccc(F)cc3)cc2CC1=O	inactive	inactive	inactive
CC(C)N1CC=C[C@@]23O[C@@H]4C=CCOC(=O)[C@@H]4[C@H]2C(=O)N(CCCO)[C@@H]3C1=O	inactive	inactive	inactive
Cc1noc(C)c1S(=O)(=O)Nc1ccc2c(c1)C(=O)N([C@H](C)CO)C[C@H](C)[C@@H](CN(C)C(=O)Nc1cccc3ccccc13)OCCCC[C@H](C)O2	active	active	inactive
C[C@@H]1CCCCO[C@H](CN(C)Cc2ccc(Cl)c(Cl)c2)[C@@H](C)CN([C@@H](C)CO)C(=O)c2cc(NC(=O)Nc3cccc4ccccc34)ccc2O1	inactive	inactive	inactive
COC[C@H]1CN(C(=O)c2cccc(OC)c2)N1	inactive	inactive	inactive
C[C@H](CO)N1C[C@H](C)[C@@H](CN(C)C(=O)c2cc(Cl)cc(Cl)c2)OCc2ccccc2-c2ccccc2C1=O	inactive	inactive	inactive
O=C(C[C@@H]1CC[C@H](NC(=O)CN2CCOCC2)[C@@H](CO)O1)NCc1cccc(F)c1	inactive	inactive	inactive
O=C(NCCCN1CCOCC1)[C@@H]1N[C@@H]2c3ccc(C4=CCCCC4)c(=O)n3C[C@@H]2[C@H]1CO	inactive	inactive	inactive
Nc1ccc(S(N)(=O)=O)cn1	inactive	inactive	inactive
Cc1ccc(S(=O)(=O)Nc2ccc3c(c2)C(=O)N([C@@H](C)CO)C[C@@H](C)[C@@H](CN(C)S(=O)(=O)c2ccc(Cl)cc2)OCCCC[C@@H](C)O3)cc1	inactive	inactive	inactive
C=C(O)C(=O)OCC	inactive	inactive	inactive
N[C@@H](C(=O)O)[C@@H](O)[C@H](O)[C@H](O)CO	inactive	inactive	inactive
CO[C@H]1CN(C)C(=O)c2ccc(NC(=O)Nc3ccccc3F)cc2OC[C@@H](C)N(Cc2ccccc2C(=O)O)C[C@@H]1C	inactive	inactive	inactive
NCCOB(c1ccccc1)c1ccccc1	inactive	inactive	inactive
Cc1ccc(S(=O)(=O)N(C)C[C@H]2Oc3ccc(NC(=O)Nc4cccc5ccccc45)cc3C(=O)N([C@H](C)CO)C[C@H]2C)cc1	inactive	inactive	inactive
Cc1noc(C)c1NC(=O)Nc1ccc2c(c1)C(=O)N([C@@H](C)CO)C[C@@H](C)[C@@H](CN(C)Cc1ccc(Cl)c(Cl)c1)O2	inactive	inactive	inactive
CN1CCN(C(=O)C[C@H]2CC[C@H]3[C@H](COc4ccc(NC(=O)C5CCOCC5)cc4C(=O)N3C)O2)CC1	inactive	inactive	inactive
COc1ccc(NC(=O)Nc2ccc3c(c2)C(=O)N([C@@H](C)CO)C[C@@H](C)[C@@H](CN(C)Cc2ccc(C(=O)O)cc2)OCCCC[C@H](C)O3)cc1	inactive	inactive	inactive
